# This is a noisy data set.
# Test: amyloid nucleation score relative to library mode (yeast Sup35 reporter selection) (log enrichment difference); higher = more amyloid nucleation; sequences are the first 22 residues of the Bri2 peptide extended by up to 12 random residues
# Details: random library (experiment): 2;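 active = nucleation score significantly above 0 at FDR 0.05; inactive = not significantly above 0 or absent from output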
# 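Note: [psi-pin-] Saccharomyces cerevisiae expressing SupN fusions, induced by 100 µM Cu2SO4, selected 7 d at 30 °C without adenine and uracil, scored by deep sequencing of output versus input.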
row,Sequence,amyloid nucleation score
1,EASNCFAIRHFENKFAVETLICFKNDLNPRHPCR,0.908
2,EASNCFAIRHFENKFAVETLICFKNVKSG,inactive
3,EASNCFAIRHFENKFAVETLICFKPYEGEICSLT,3.55
4,EASNCFAIRHFENKFAVETLICFKRFVTLIECFR,3.51
5,EASNCFAIRHFENKFAVETLICFKSDSHDECGRG,3.01
6,EASNCFAIRHFENKFAVETLICFKSQHSWICPWF,0.72
7,EASNCFAIRHFENKFAVETLICFKTTMMTNKGEN,inactive
8,EASNCFAIRHFENKFAVETLICFKTVCIFRSYFI,inactive
9,EASNCFAIRHFENKFAVETLICFKYVLSAICSHS,inactive
10,EASNCFAIRHFENKFAVETLICFLCMRLSGSFSW,inactive
11,EASNCFAIRHFENKFAVETLICFLDSMLLSAFSN,inactive
12,EASNCFAIRHFENKFAVETLICFLEFFFPIVDSV,inactive
13,EASNCFAIRHFENKFAVETLICFLEFSRRKTVGW,inactive
14,EASNCFAIRHFENKFAVETLICFLEGLLRFRSSL,-0.405
15,EASNCFAIRHFENKFAVETLICFLERSVSGLVRL,0.301
16,EASNCFAIRHFENKFAVETLICFLFCSGVSMWVK,inactive
17,EASNCFAIRHFENKFAVETLICFLFFTSVLCEFT,inactive
18,EASNCFAIRHFENKFAVETLICFLFVHLCVYTAS,inactive
19,EASNCFAIRHFENKFAVETLICFLFVLGIKEYKS,inactive
20,EASNCFAIRHFENKFAVETLICFLGRVVFTNSVG,inactive
21,EASNCFAIRHFENKFAVETLICFLGYYYT,inactive

row,Sequence,amyloid nucleation score
1,EASNCFAIRHFENKFAVETLICFLHSVNNVIYNR,inactive
2,EASNCFAIRHFENKFAVETLICFLKFIYCNVLRE,-0.0198
3,EASNCFAIRHFENKFAVETLICFLKIRLKRVEYC,inactive
4,EASNCFAIRHFENKFAVETLICFLKTCNISRQDH,inactive
5,EASNCFAIRHFENKFAVETLICFLL,7.31
6,EASNCFAIRHFENKFAVETLICFLLALIVVFSLW,3.33
7,EASNCFAIRHFENKFAVETLICFLLLRFHYIYSW,inactive
8,EASNCFAIRHFENKFAVETLICFLLVFSYSYAVK,inactive
9,EASNCFAIRHFENKFAVETLICFLLWG,inactive
10,EASNCFAIRHFENKFAVETLICFLMI,6.23
11,EASNCFAIRHFENKFAVETLICFLMSKF,inactive
12,EASNCFAIRHFENKFAVETLICFLNYCLFSGRGG,-0.688
13,EASNCFAIRHFENKFAVETLICFLPNCLQSNVSR,8.87
14,EASNCFAIRHFENKFAVETLICFLPTRLDTWRGC,0.664
15,EASNCFAIRHFENKFAVETLICFLPWTLSVSRLL,inactive
16,EASNCFAIRHFENKFAVETLICFLRMRVYMLIVF,inactive
17,EASNCFAIRHFENKFAVETLICFLSIKNSWYWMG,inactive
18,EASNCFAIRHFENKFAVETLICFLSIWRMFDMVL,inactive
19,EASNCFAIRHFENKFAVETLICFLTMPGEYAMDG,5.81
20,EASNCFAIRHFENKFAVETLICFLTVTE,3.76

# Same assay, conditions: random library (experiment): 3
row,Sequence,amyloid nucleation score
1,EASNCFAIRHFENKFAVETLICFIINPQYSGGVS,7.62
2,EASNCFAIRHFENKFAVETLICFIMLFSISTWHL,inactive
3,EASNCFAIRHFENKFAVETLICFIPYWVVTSLRM,inactive
4,EASNCFAIRHFENKFAVETLICFIVLNSGTMAVR,inactive
5,EASNCFAIRHFENKFAVETLICFKAMI,3.97
6,EASNCFAIRHFENKFAVETLICFKF,inactive
7,EASNCFAIRHFENKFAVETLICFKFTCSLNVIDV,4.72
8,EASNCFAIRHFENKFAVETLICFKHDGKSVGRMG,3.94
9,EASNCFAIRHFENKFAVETLICFKRDRLALSGYR,inactive
10,EASNCFAIRHFENKFAVETLICFKVCGKC,0.582
11,EASNCFAIRHFENKFAVETLICFKVVRGVIFDCG,inactive
12,EASNCFAIRHFENKFAVETLICFKWGMYMHLGRS,inactive
13,EASNCFAIRHFENKFAVETLICFLAVLLEPVKLG,inactive
14,EASNCFAIRHFENKFAVETLICFLCCNICNKRHT,8.87
15,EASNCFAIRHFENKFAVETLICFLCLMLPEWLA,inactive
16,EASNCFAIRHFENKFAVETLICFLFTC,7.19
17,EASNCFAIRHFENKFAVETLICFLIGSGSGKHIA,3.24
18,EASNCFAIRHFENKFAVETLICFLRVVSFTHIA,inactive
19,EASNCFAIRHFENKFAVETLICFLVAGWSVFDRW,inactive

# Reference: the supplement of paper PMC12067230
